# PubChem BioAssay AID488969 (Vanderbilt High Throughput Screening Facility, 2010)
# The full ranking holds about 110,000 compounds; the median of “z-score” is about -0.1, and the highest 2% start at about 2. The list shows a part of the results.
# Biological target: Metabotropic glutamate receptor 8 (Rattus norvegicus) (UniProt P70579)
# Test: rat mGluR8 modulators via GIRK flux, primary screen, cell-based, thallium flux, HTS (AID 488969)
# Settings: HEK293 rat mGluR8, GIRK (G protein-gated inwardly rectifying potassium channel) thallium flux, FluoZin2; at 10 µM; stronger effect = higher value; submaximal glutamate (EC20) added with thallium
# Sequence of UniProt P70579 (P70579 whole entry, looked up): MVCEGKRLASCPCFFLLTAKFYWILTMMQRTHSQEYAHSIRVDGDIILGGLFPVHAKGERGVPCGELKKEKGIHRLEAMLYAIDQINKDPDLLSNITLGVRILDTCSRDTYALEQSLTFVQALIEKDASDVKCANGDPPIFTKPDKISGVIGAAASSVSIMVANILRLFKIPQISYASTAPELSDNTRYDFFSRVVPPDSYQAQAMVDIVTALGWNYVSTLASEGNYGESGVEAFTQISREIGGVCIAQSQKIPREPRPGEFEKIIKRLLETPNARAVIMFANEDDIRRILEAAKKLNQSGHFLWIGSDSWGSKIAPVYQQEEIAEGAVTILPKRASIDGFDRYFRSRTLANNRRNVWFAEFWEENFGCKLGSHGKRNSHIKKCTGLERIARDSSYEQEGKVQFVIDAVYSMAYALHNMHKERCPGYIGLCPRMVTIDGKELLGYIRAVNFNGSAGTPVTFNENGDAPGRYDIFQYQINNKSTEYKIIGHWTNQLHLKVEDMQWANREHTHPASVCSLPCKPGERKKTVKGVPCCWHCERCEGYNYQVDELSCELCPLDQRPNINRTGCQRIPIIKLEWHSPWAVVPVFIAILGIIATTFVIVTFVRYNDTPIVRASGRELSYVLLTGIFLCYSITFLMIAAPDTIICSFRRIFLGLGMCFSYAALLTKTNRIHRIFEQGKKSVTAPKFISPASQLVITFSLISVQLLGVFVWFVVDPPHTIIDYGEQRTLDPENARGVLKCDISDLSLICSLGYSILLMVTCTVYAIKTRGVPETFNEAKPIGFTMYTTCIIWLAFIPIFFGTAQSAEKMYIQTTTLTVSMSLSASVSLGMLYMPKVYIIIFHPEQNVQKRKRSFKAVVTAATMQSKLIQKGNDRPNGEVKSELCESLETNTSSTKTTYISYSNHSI
row,Compound,z-score
1,c1nc(N2CCOCC2)c2[nH]cnc2n1,0.445
2,c1ccc(CCNc2nc3ccccc3s2)cc1,-0.152
3,O=C1OCCC1Sc1nnc(-c2ccc(Br)cc2)o1 (centres undefined),-2.15
4,Cc1ccc(NC(=S)NCC2CCCO2)cc1C (centres undefined),0.128
5,Cc1ccc(S(=O)(=O)N2CCCCC2)cc1NS(=O)(=O)c1cccc(C(=O)O)c1,-0.116
6,CN(C(=O)C1CCOC1)c1nnc(-c2cnccn2)s1 (centres undefined),-0.856
7,CNC(=O)CSc1nnc(COc2ccc(Cl)cc2)n1CCOC,1.63
8,C=CCn1c(SCC(=O)c2ccc(CNC(C)=O)o2)nc2ccccc2c1=O,0.598
9,O=CNC(=O)c1ccccc1C(=O)O,0.026
10,COc1ccccc1N1CCN(C(c2cccs2)c2nnnn2C2CCCC2)CC1 (centres undefined),-0.535
11,CCCCOc1c(Br)cc(/C=C2\N=C(C)OC2=O)cc1OCC,0.376
12,COC(=O)CN(c1cccc(F)c1)S(C)(=O)=O,0.265
13,Cn1c(NCc2ccco2)nc2c1c(=O)n(Cc1ccc(Cl)cc1)c(=O)n2C,-0.607
14,O=C(Nc1n[nH]c(C2CCCCC2)n1)C1CCCCC1,-0.0165
15,CC(=O)N1c2ccc3ccccc3c2C2C=CCC2C1c1ccc(Br)cc1 (centres undefined),-0.0981
16,COC(=O)c1ccc(Nc2nc(C)cc(C)n2)cc1,-0.976
17,O=C(CCS(=O)(=O)c1cccc2nsnc12)NC1CCCCC1,-0.258
18,Cc1ccc(OCC(O)Cn2c(NCCc3ccccc3)nc3c2c(=O)[nH]c(=O)n3C)cc1 (centres undefined),1.2
19,COc1cc(OC)c(NC(=O)CCc2nc(-c3cccs3)no2)cc1Cl,-0.447
20,Cc1ccccc1NC(C)C(=O)N/N=C/c1ccccc1OCc1cccc(Br)c1 (centres undefined),-0.61
21,Cc1ccc(CCN2CC(C(=O)NCc3ccco3)CC2=O)cc1 (centres undefined),0.656
22,COc1ccc(-n2c(SCC(=O)Nc3ccccc3)nc3c(c2=O)SCC3)cc1,-0.458
23,COc1cccc2cc(C(=O)CC3(O)C(=O)N(Cc4ccccc4)c4ccccc43)c(=O)oc12 (centres undefined),-0.219
24,Cc1ccc(C(=O)N/N=C(\CC(C)C)c2ccccc2)cc1,0.26
25,O=C(Nc1cnn(Cc2ccc(F)cc2)c1)C(c1ccccc1)c1ccccc1,0.0792

row,Compound,z-score
1,CCCCN(CCCC)Cc1cc2ccccc2c2c1COC2,0.829
2,CCc1ccc(OCC(O)CNC(C)(C)C)cc1 (centres undefined),0.829
3,CCN(CC)C(=O)CSc1nc(O)cc(=O)n1CC,-0.943
4,CCC(=O)NCCNc1nc2cc(C)c(C)cc2cc1C#N,-0.187
5,CCCC1C2C(=O)N(c3ccccc3)C(=O)C2ON1c1ccccc1 (centres undefined),-0.305
6,O=C1CCCc2oc3ccc(O)cc3c21,-0.105
7,Cc1cc(C)nc(NC2=NCC(=O)N2c2ccccc2Br)n1,0.578
8,CCOC(=O)C1C(c2cccc(Cl)c2Cl)NC(=O)NC1(O)C(F)(F)F (centres undefined),-0.0385
9,CC(C)CSc1nnc2c(n1)[nH]c1ccccc12,-1.18
10,C=C(C)COc1ccc(-c2n[nH]c(C)c2-c2ccccc2OC)c(O)c1,1.53
11,Cc1ccc2[nH]c(=O)c(CN(CCO)Cc3nnnn3CCc3ccccc3)cc2c1,0.327
12,CCOC(CNC(=O)c1cccn2c(=O)c3cc(Cl)ccc3nc12)OCC,-0.11
13,Cn1cccc1CC(=O)NNC(=O)Nc1ccc(F)cc1,-0.0202
14,CC(=O)N(C)c1ccc(NC(=O)c2ccccc2C(=O)O)cc1,-0.182
15,CCOC(=O)CSc1n[nH]c(NC(=O)c2cccc(C(F)(F)F)c2)n1,-0.122
16,O=C(Cc1ccccn1)Nc1ccccc1,0.105
17,Cc1ccc(S(=O)(=O)N(CC(=O)N/N=C/c2cccc(C)c2)c2cccc3cccnc23)cc1,-0.642
18,Cc1csc(NC(=O)Cc2c[nH]c3ccccc23)n1,-0.137
19,CSCCC(NC(=O)c1ccccc1)C(=O)NCc1ccco1 (centres undefined),0.405
20,Cc1sc(NC(=O)CN(C)C2CCCCC2)nc1-c1ccc2c(c1)CCN2S(=O)(=O)c1ccccc1,-0.199
21,CCCn1nnc(NC(=O)c2cccc(OCC)c2)n1,-0.378
22,COc1ccccc1NC(=S)N/N=C/c1cccc(C)c1,0.651
23,CC(Oc1cccc(Cl)c1)C(=O)Nc1cc(=O)n(C)c(=O)n1C (centres undefined),-0.0453
24,Cc1cc(N2CCOCC2)ccc1/C=C1\NC(=O)N(CC(=O)Nc2ccccc2C)C1=O,-0.066
25,O=C(CSc1nc2ccccc2o1)Nc1ccccc1N1CCOCC1,-0.771

row,Compound,z-score
1,COc1cc(/C=N/N2CCN(C3c4ccccc4-c4ccccc43)CC2)cc(OC)c1O,-0.191
2,COc1ccccc1N1CCN(CCCNC(=O)Nc2ccccc2)CC1,-0.426
3,Cc1nn(S(=O)(=O)c2ccc([N+](=O)[O-])cc2)c(C)c1Sc1ccccc1,-0.0239
4,CCCN1C2CCCC1CC(NC(=O)C1CCCCC1)C2 (centres undefined),-0.199
5,Cc1ccc(O/C=C2\OC(=O)c3ccccc32)cc1,0.0779
6,COc1ccc(Cl)cc1NC(=O)Nc1ccc(Br)cn1,0.253
7,CCCCC(=O)Nc1cccc(NC(=O)c2ccc(Br)cc2)c1,0.0277
8,Oc1ccc(C=Nc2ccccc2-c2nc3ccccc3[nH]2)c(O)c1,-0.247
9,CCOC(=O)c1ccccc1NC(=S)N1CC(C)CC(C)C1 (centres undefined),-0.159
10,CC(O)CNc1nc2c(c(=O)n(C)c(=O)n2C)n1CCc1ccccc1 (centres undefined),-0.23
11,CCN1C(=O)OC2(CCCCC2)C1(C)O (centres undefined),-0.0204
12,CC1=C(C(=O)Nc2ccccc2C)C(c2ccccc2)NC(=O)N1 (centres undefined),-0.43
13,CCOC(=O)N1CCN(C(=O)CSc2nnc(-c3ccc(C)c(C)c3)o2)CC1,-0.295
14,N#Cc1ccc(CSCC(=O)O)cc1,0.0977
15,CNC(=O)CSc1nnc(-c2cccc(S(=O)(=O)N3CCOCC3)c2)n1-c1ccc(F)cc1,0.182
16,O=C(CN1C(=O)NC2NC(=O)NC21)NN=C1CCCC1 (centres undefined),-0.395
17,O=C(CN(Cc1ccco1)C(=O)c1ccc(Cl)cc1)Nc1c(Cl)cc(Cl)cc1Cl,-0.276
18,Cc1cc(NC(=O)CSc2nnc(CNc3cccc(C(F)(F)F)c3)n2Cc2ccco2)no1,-0.233
19,CCCc1cc(=O)n2[nH]c(C)nc2n1,0.153
20,CCc1ccc(S(=O)(=O)NCc2cn3c(C)csc3n2)s1,0.337
21,COc1ccc(C2c3c(ccc4ccccc34)Oc3ncn4nc(Cc5ccc(OC)c(OC)c5)nc4c32)cc1 (centres undefined),-0.169
22,Cc1cc(Cl)ccc1NC(=S)NCCN1CCOCC1,0.224
23,CCOC(=O)c1ccc(NC(=O)c2ccc3c(c2)OCO3)cc1,-0.427
24,COc1ccc2c(C)cc(SCC(=O)c3ccc4c(c3)OCO4)nc2c1,0.554
